Some of these densities may be calculated back from excess volumes.
Experiment: xn = mol fraction of the nth substance listed
Conditions: 100 kPa

COCCCC[n+]1ccn(C)c1.NCC(=O)[O-] + CS(C)=O
mass density [kg/m3]
Conditions | x1 = 0.1009 | x1 = 0.1984 | x1 = 0.299 | x1 = 0.3986 | x1 = 0.4986 | x1 = 0.6006 | x1 = 0.701 | x1 = 0.7941 | x1 = 0.907 | x1 = 1
288.15 K | 1140.5 | 1151.1 | 1154.6 | 1157 | – | 1162.9 | 1165.1 | 1166.1 | 1167 | 1168.8
293.15 K | 1135.8 | 1146.9 | 1150.7 | 1153.4 | – | – | 1161.6 | – | 1163.8 | 1165.4
298.15 K | 1131.7 | 1142.6 | 1146.7 | 1149.6 | 1152.6 | 1155.9 | 1158.1 | – | 1160.2 | –
303.15 K | – | 1138.5 | – | 1145.7 | 1149.1 | 1152.3 | 1154.7 | 1155.8 | 1156.7 | 1158.3
308.15 K | – | 1134.2 | – | 1141.9 | 1145.4 | 1148.7 | – | 1152.3 | 1153.1 | 1154.7
313.15 K | 1118.1 | 1130 | 1134.8 | 1138 | 1141.7 | 1145.2 | 1147.8 | 1148.8 | 1149.5 | 1151
318.15 K | – | 1125.8 | 1130.6 | 1134.4 | 1138.2 | 1141.8 | 1144.3 | 1145.4 | 1145.8 | 1147.3

CS(C)=O + COCCCC[n+]1ccn(C)c1.NCC(=O)[O-]
x2 = 0
Conditions | mass density [kg/m3]
288.15 K | 1105.2
293.15 K | 1100.3
298.15 K | 1095.2
303.15 K | 1090.2
313.15 K | 1080.2
318.15 K | 1075.2

CS(C)=O + NC(C)C(=O)[O-].COCCCCN1C=[N+](C=C1)C
x2 = 0
Conditions | mass density [kg/m3]
288.15 K | 1105.2
293.15 K | 1100.3
298.15 K | 1095.2
303.15 K | 1090.2
313.15 K | 1080.2
318.15 K | 1075.2

CC(N)C(=O)[O-].COCCCCn1cc[n+](C)c1 + CS(C)=O
mass density [kg/m3]
Conditions | x1 = 0.1009 | x1 = 0.1996 | x1 = 0.3012 | x1 = 0.3985 | x1 = 0.4922 | x1 = 0.5996 | x1 = 0.6966 | x1 = 0.7973 | x1 = 0.8997 | x1 = 1
288.15 K | 1139 | – | – | 1149.2 | 1150.6 | – | 1154.5 | 1156.1 | – | 1162.7
293.15 K | 1134.2 | – | – | 1145.6 | 1146.8 | 1149 | 1150.8 | 1152.5 | 1154.7 | –
298.15 K | 1129 | – | 1140.8 | 1141.7 | 1143.1 | 1145.4 | 1147.3 | 1149 | 1151.2 | 1155.5
303.15 K | 1124.5 | – | 1136.9 | 1138.1 | 1139.4 | – | 1143.7 | 1145.5 | 1147.7 | 1151.8
308.15 K | 1119.9 | 1129.9 | 1133 | – | 1135.7 | – | – | – | 1144.1 | 1148.2
313.15 K | 1115 | 1125.8 | 1128.6 | 1130.3 | 1131.9 | 1134.4 | – | 1138.4 | 1140.6 | 1144.5
318.15 K | – | 1121.5 | 1124.8 | 1126.5 | – | – | 1132.8 | – | 1137.1 | 1140.8

From a compilation of properties of binary mixtures (doi:10.1016/j.molliq.2022.119918)
